{"source": "paper PMC12136788", "binders": {"B1": {"name": "chr17:64801638:64801639:+_ENSG00000154229_ENST00000413366|hu_mus|hu_hu_hu_mus_False|18_108 (ssRNA)", "RNA": "GGGAGUUCUACAGUCCGACGAUCUAUAAAUACAUAUACAUAUGUACACAUAUAUAGUAAAACCCUAGUUAAACGUGUAAAGUAGCCAUUCAUUUUUAAAAUUACAUCUACAUUAAAAAAGUAAUCUAUCUGAUAGAGUGCCAGCAACAGAGGAUUGAGCAUCA"}, "B2": {"name": "chr7:149068622:149068623:-_ENSMUSG00000025139_ENSMUST00000001950|mus_hu|mus_mus_mus_hu_False|38_68 (ssRNA)", "RNA": "GGGAGUUCUACAGUCCGACGAUCGUGAGGCCUCUGAGUGUGGCUUGUGGUCUGUCCUGGGUUAGAGCUGCUGGUAACACGGAACAUACCAUCUAGAGAGGUUCUGCCCCGCCUGACACCUUCAUUCCCAAUGGAGAAGAAAUCCAACAGAGGAUUGAGCAUCA"}, "B3": {"name": "chr1:43168039:43168040:+_ENSMUSG00000010290_ENSMUST00000010434|mus_mus|motif|central (ssRNA)", "RNA": "GGGAGUUCUACAGUCCGACGAUCCUGUUGAGUGUCAUUAUUAUUGUGCUCCAUUUUAUGGUUCACAGGCAAAUUGGAAAACAACACGGGGGGUGAAAUCCUCGACGAGGAAUUUGGUGAUUUCCAGAAGGCAUCACUGGUGGACAACAGAGGAUUGAGCAUCA"}, "B4": {"name": "chr2:198351390:198351391:-_ENSG00000144381_ENST00000345042|hu_hu|hu_hu_hu_mus_False|48_48 (ssRNA)", "RNA": "GGGAGUUCUACAGUCCGACGAUCUCAUUCCCACCCUCCACAGAAAGGCUGCUUCUGAACUCUCAUGUGGUGACACAGCGCUACAGUCCUGAUUUUAACAGAACAGUAGAGAUGCCUCAGUGAUUUAAGUUGAAAGCAGGACACCAACAGAGGAUUGAGCAUCA"}, "B5": {"name": "92119144_92120624_3555_CDS_ENSG00000127980_ENST00000248633|human|control|control (ssRNA)", "RNA": "GGGAGUUCUACAGUCCGACGAUCCUGUGAAAACAACUGGUCUUUCCCAGGAACUCCAGGCAAAUCCUGAGUCAUGGAGCUUGGUGCAGAGAGACAUUGUGAGCUCAAAUCAGAAGAGGUUCCAUUUCCAAGUUCUGAUUCAUACAACAGAGGAUUGAGCAUCA"}, "B6": {"name": "2967938_2968058_2166_CDS_ENSG00000111206_ENST00000359843|human|control|control (ssRNA)", "RNA": "GGGAGUUCUACAGUCCGACGAUCUGUCAGAGAACGAUUGGCUGCAAGGCCAGAAACCUGUGGCUCCGGGGAGCCUGGCUUGGGGACGUCUAUAUCUGAGGGAGAAGAGUUGCCAAAGGGGACGGAGAUGAGGUCUAAGGGUUCCAACAGAGGAUUGAGCAUCA"}, "B7": {"name": "chr1:39494447:39494448:+_ENSG00000168653_ENST00000372967|hu_mus|hu_hu_hu_mus_False|28_58 (ssRNA)", "RNA": "GGGAGUUCUACAGUCCGACGAUCGCACCGAGCGGCGUUCUUAUAGGGCUGUUCUGCGCUUAGGAACAUAAAGUGCCGAUCUAUGUUGAUGCCCAGCUUUUUCUGUAUGUCCAAGAAAGGCAUGGCUCUGCAGUGCCCUUGUCACAACAGAGGAUUGAGCAUCA"}, "B8": {"name": "chr11:87793471:87793472:-_ENSMUSG00000020483_ENSMUST00000020775|mus_mus|mus_mus_mus_hu_False|78_108 (ssRNA)", "RNA": "GGGAGUUCUACAGUCCGACGAUCUGGGGGCUGGGGAAAAAGAAUAAGCUGGAUCCCCCCACCCCUUACAUUGUCAACCCUACACGAGAGUUUUGAAGGCGACUCAUGAAAAUCAGCAGCUCAAACGGCAAUGACCACCCCACCCAACAGAGGAUUGAGCAUCA"}, "B9": {"name": "chr2:47388980:47388981:-_ENSG00000143933_ENST00000272298|hu_mus|hu_hu_hu_mus_True|8_98 (ssRNA)", "RNA": "GGGAGUUCUACAGUCCGACGAUCUUCAUCUGUUAACUUCUCUCCAAGGUUUGUCAUCACAUGGCGAAGCUCUGCUGCACUAAUAUAGCCAUUGCCAUCCUUAUCAAACACACGGAAUGCUUCUCUAAUUUCUUCUUCACUGUCCAACAGAGGAUUGAGCAUCA"}, "B10": {"name": "chr3:9412954:9412955:+_ENSG00000134077_ENST00000452837|hu_mus|hu_hu_hu_mus_False|1_48 (ssRNA)", "RNA": "GGGAGUUCUACAGUCCGACGAUCGGUUGAUAUCUCUUCUUUGAUGGCUGGAUUUUCAUAAUAGUCCAAGAUAUGUGAAUCUGAAGUAUGGCUAGUGUGCUUUUUCUUACCAUCUUUCUCAUCUGCUUUGUCUCCUUGUCCAUUCAACAGAGGAUUGAGCAUCA"}, "B11": {"name": "chr10:102306293:102306294:+_ENSG00000166135_ENST00000299163|hu_mus|FALSE|FALSE (ssRNA)", "RNA": "GGGAGUUCUACAGUCCGACGAUCAGCCCCCUUAUACCAGAAGUUCACAGUGAUGGUAAUUCCCCCAUUUAGUAAUGACUCUAUAUGGUGCCACCAGUACAUUGGGAUGUAAAGAACAUCCCCAGGGCCAACCACUGUCUCAUACAACAGAGGAUUGAGCAUCA"}, "B12": {"name": "chr7:5008886:5008887:+_ENSMUSG00000035228_ENSMUST00000045543|mus_mus|FALSE|FALSE (ssRNA)", "RNA": "GGGAGUUCUACAGUCCGACGAUCCCCUUCAUCAUGGCCCAUCUCCGAACCCAAUGCCAUAAAUGGAGAAACAACCACCCCUAACUUCCAUUCUUGGGGUAGGGGGUCCAUCCUGCAAGCGUUCCCCUGUCCCAGCCGCCCAUUCAACAGAGGAUUGAGCAUCA"}, "B13": {"name": "chr5:33461064:33461065:+_ENSG00000113407_ENST00000502553|hu_mus|FALSE|FALSE (ssRNA)", "RNA": "GGGAGUUCUACAGUCCGACGAUCUGUGAGCCCGGUGAGAGCCCCCGAGAGCUCAUUCCUAUGCAGCACACCAAAGUCAGCUAGCCGCAGGGGCAGCUCUCGCCAGGACCGUGGCCGGUGAUCGAACAUCAGGCAGUGUCCCGGCAACAGAGGAUUGAGCAUCA"}, "B14": {"name": "107879600_107879720_202_3pUTR_ENSG00000166266_ENST00000393094|human|control|control (ssRNA)", "RNA": "GGGAGUUCUACAGUCCGACGAUCGCACCCGCCGCGGCCACCUGCAACGAAUUUAGCUCGGCUUAGGCCCCGCAGCUCAGGUUCCGCGGCCACGUCACGUGACGCGAGGGCGGGGACGCGCUCGGGAGCGAGCGUGGGAGCCUGCAACAGAGGAUUGAGCAUCA"}, "B15": {"name": "chr11:116106860:116106861:-_ENSMUSG00000020780_ENSMUST00000021133|mus_mus|FALSE|FALSE (ssRNA)", "RNA": "GGGAGUUCUACAGUCCGACGAUCGAGGCACAGGGGACACAGAGACCCUGACUCUGGGCCCAGAAGAUGACAGGCUACAAAAGUAAGUCACAAACACACAAGAUGAACGGCCGCAGGGCUGAGGGUGCUGAGCUCUGCCCCAGCCAACAGAGGAUUGAGCAUCA"}, "B16": {"name": "chr1:10192443:10192444:+_ENSG00000130939_ENST00000377157|hu_mus|FALSE|FALSE (ssRNA)", "RNA": "GGGAGUUCUACAGUCCGACGAUCAAGGGCCGCCAUGUAGCUGAGAGCCGCUUCACGAGUUUCGCCAUUUAACAAAAUACUAUGUAGAAUCUUGAAAAGUUCUUGCCGUCCCAGCUCCAGGUAAUGCUGUAGUGACUGGCUGACCAACAGAGGAUUGAGCAUCA"}, "B17": {"name": "chr22:19452774:19452775:-_ENSG00000070010_ENST00000399523|hu_hu|hu_hu_hu_mus_False|28_98 (ssRNA)", "RNA": "GGGAGUUCUACAGUCCGACGAUCCUUCUCAUUGUAGUUGAUGGCAAUCACAUCUCCAGUCGUCAGACAGGCGAAGUUUCUCAAUGCAUUUUCUAAUACCGCUUUAGGGUUGGUGAUAUCCAGGAAGUCUGGGCUCUGAGGCUGCAACAGAGGAUUGAGCAUCA"}, "B18": {"name": "chr17:58740566:58740567:+_ENSG00000170836_ENST00000305921|hu_hu|motif|central (ssRNA)", "RNA": "GGGAGUUCUACAGUCCGACGAUCUUUUUGGUCCAUGACAGUGUUUGUUGAAUUAGUAGGCACAAGGCCAAUUGGAAGGCGGUUAUUCAAAGAAUCAUGUAUCCUUAAAGUCAGGGCUUUAGCGCAAUUUUCUUCAAGUGGUUCCAACAGAGGAUUGAGCAUCA"}, "B19": {"name": "chr12:39763582:39763583:-_ENSG00000139116_ENST00000544797|hu_mus|hu_hu_hu_mus_False|58_58 (ssRNA)", "RNA": "GGGAGUUCUACAGUCCGACGAUCCUCUAGGAACUGGGCAUUCACUUUGAAUUCAGGAGGGGGCAGCCCGUUUUUAAUUGCUAUGUGCUUUUUCUCAUCAAUACUCUUGAACAGGUGUCUAACAGCACGAGAGAUGAUGCCCUGCAACAGAGGAUUGAGCAUCA"}, "B20": {"name": "88122427_88124480_1314_CDS_ENSMUSG00000001416_ENSMUST00000001452|mouse|control|control (ssRNA)", "RNA": "GGGAGUUCUACAGUCCGACGAUCCACAGCCAUCUCAGAGGCUCCACCACCAGGCACCAGCUGAGGGUCCAGUAGAACAUUGCGGCACACUUGCAUGGCAUCCUGGAGGUUGCGUUCUACUUCCGAGAGUAUCUCUUUGCUGGCCAACAGAGGAUUGAGCAUCA"}, "B21": {"name": "chr12:39756943:39756944:-_ENSG00000139116_ENST00000544797|hu_mus|hu_hu_hu_mus_False|1_68 (ssRNA)", "RNA": "GGGAGUUCUACAGUCCGACGAUCGGUUUGGCUGUUACCCCCAAGGGAAUCCUGCAAGAGUCUUGUCAGCUUGGAAUCUCUGUAAGGGACAUGGGUGGCUCUCUUGCUCUUGUCCCCCAAGGCGCUGAUUACAUUCCCAAGUGCCAACAGAGGAUUGAGCAUCA"}, "B22": {"name": "chr2:179515052:179515053:+_ENSMUSG00000000305_ENSMUST00000000314|mus_hu|mus_mus_mus_hu_False|18_98 (ssRNA)", "RNA": "GGGAGUUCUACAGUCCGACGAUCGCUGUCCCAUGCAGUGACGGUAAACGCCACCUGCUCGGAGGGGACCUGCAGCUCCCGGGUGGCGAAGACUGUCCCAUCUGCCCCAACUUUGAAGUCCAAGCUGUUGGUCUCAUAUUGUGUCAACAGAGGAUUGAGCAUCA"}}, "note": "This is one part of the list.", "data": [{"molecular_target": "T1, UNK ZnF1-3 (human, UniProt Q9C0B0 31-174)", "T1 sequence": "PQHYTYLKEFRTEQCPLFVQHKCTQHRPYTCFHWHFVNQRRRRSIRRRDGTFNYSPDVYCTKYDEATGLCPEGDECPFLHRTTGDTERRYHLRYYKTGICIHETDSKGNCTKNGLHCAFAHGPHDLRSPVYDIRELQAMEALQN", "test": "nsRBNS (natural sequence RNA bind-n-seq); RBNS binding buffer (assumed for nsRBNS): 25 mM Tris pH 7.5, 150 mM KCl, 3 mM MgCl2, 0.01% Triton X-100, 500 ug/ml BSA, 20 U/ml SUPERase-In, 4 C; UNK is unkempt and MSI1 is Musashi-1; names of the RNAs are library labels; protein concentration not given here; high values mean tight binding", "units": {"binding signal": "enrichment R"}, "values": [{"binder": "B1", "binding signal": 1.09}, {"binder": "B2", "binding signal": 0.755}, {"binder": "B3", "binding signal": 0.913}, {"binder": "B4", "binding signal": 1.13}, {"binder": "B5", "binding signal": 1.06}, {"binder": "B6", "binding signal": 1.55}, {"binder": "B7", "binding signal": 0.648}, {"binder": "B8", "binding signal": 1.41}, {"binder": "B9", "binding signal": 0.764}, {"binder": "B10", "binding signal": 0.32}, {"binder": "B11", "binding signal": 1.78}, {"binder": "B12", "binding signal": 1.3}, {"binder": "B13", "binding signal": 1.26}, {"binder": "B14", "binding signal": 1.14}, {"binder": "B15", "binding signal": 1.3}, {"binder": "B16", "binding signal": 1.5}, {"binder": "B17", "binding signal": 0.766}, {"binder": "B18", "binding signal": 1.16}, {"binder": "B19", "binding signal": 1.7}, {"binder": "B20", "binding signal": 1.33}, {"binder": "B21", "binding signal": 0.542}, {"binder": "B22", "binding signal": 0.888}]}]}
